# Assay results from a collection of fitness landscapes (doi:10.1016/j.celrep.2020.107928).
# Whole data set: some 81,000 sequences, median “one-hybrid fitness for binding parS DNA” near -0.17, cut for the highest 2% near 0.51. Some of the results follow.
# B1: Caulobacter ParB omega fusion; a variant is named by its letters at X, in order, B8GW30 (parent)
# chain: MESVVVGEPGMSEGRRGLGRGLSALLGEVDAAPAQAPGEQLGGSREAPIEILQRNPDQPRRTFREEDLEDLSNSIREKGVLQPILVRPSPDTAGEYQIVAGERAWRAAQRAGLKTVPIMVRELDDLAVLEIGIIENVQRADLNVLEEALSYKVLMEKFERTQENIAQTIGKSXSHVANXMRLLXLPDEVQSYLVSGELTAXHARAIAAAADPVALAKQIIEGGLSVRETEALARKAPNLSAGKSKGGRPPRVKDTDTQALESDLSSVLGLDVSIDHRGSTGTLTITYATLEQLDDLCNRLTRGI
# Variants of: B1
# Assay: one-hybrid fitness for binding parS DNA (scaled: cognate 1, non-cognate 0); higher = stronger binding
# Details: with parS DNA site
# Outline: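 Selection: bacterial one-hybrid in E. coli USO, HIS3 reporter with the site 19 bp from the promoter, 48 hours at 37°C on M9-minus-histidine plus 0.1 mM IPTG and 5 mM 3-AT. Libraries were Caulobacter ParB with four randomised specificity codons, sequenced on Illumina before and after selection. Fitness is the rescaled log change in variant-to-wild-type read ratio, anchored to the cognate and non-cognate sites.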
row,Variant,one-hybrid fitness for binding parS DNA
1,RLYF,0.273
2,GSNW,≤ 0.2
3,AHDW,≤ 0.2
4,LEAK,≤ 0.2
5,RAME,≤ 0.2
6,MECT,≤ 0.2
7,DTWS,≤ 0.2
8,PYNI,≤ 0.2
9,GTQQ,≤ 0.2
10,DVWS,≤ 0.2
11,AYHG,≤ 0.2
12,KNRR,≤ 0.2
13,STCV,≤ 0.2
14,NMHL,≤ 0.2
15,NRAL,≤ 0.2
16,IKRA,≤ 0.2
17,ETCF,≤ 0.2
18,FGVM,≤ 0.2
19,DYAG,≤ 0.2
20,WRAR,≤ 0.2
21,STLF,≤ 0.2
22,GCNY,≤ 0.2
23,RMNW,0.318
24,LKNQ,≤ 0.2
25,PFMS,≤ 0.2
26,WVMN,≤ 0.2

row,Variant,one-hybrid fitness for binding parS DNA
1,RTCY,0.452
2,TNEL,≤ 0.2
3,PPHV,≤ 0.2
4,QYYH,≤ 0.2
5,CEDT,≤ 0.2
6,RTCH,0.289
7,VKHC,≤ 0.2
8,AFRI,≤ 0.2
9,MPST,≤ 0.2
10,HSCS,≤ 0.2
11,PQRL,≤ 0.2
12,DNHY,≤ 0.2
13,GGME,≤ 0.2
14,YRKP,≤ 0.2
15,PMDR,≤ 0.2
16,SPRC,≤ 0.2
17,EHQG,≤ 0.2
18,RNMN,0.299
19,MRHC,≤ 0.2
20,SLMS,≤ 0.2
21,QLVA,≤ 0.2
22,DSDY,≤ 0.2
23,EVAT,≤ 0.2
24,LWSC,≤ 0.2
25,IRNG,≤ 0.2
26,CINT,≤ 0.2

row,Variant,one-hybrid fitness for binding parS DNA
1,EPNV,≤ 0.2
2,HELR,≤ 0.2
3,DPVM,≤ 0.2
4,AAFC,≤ 0.2
5,AQSW,≤ 0.2
6,SREF,≤ 0.2
7,QSNV,≤ 0.2
8,GDKR,≤ 0.2
9,ALRY,≤ 0.2
10,NIHR,≤ 0.2
11,IKKR,≤ 0.2
12,INLA,≤ 0.2
13,APPR,≤ 0.2
14,AVVL,≤ 0.2
15,PVTS,≤ 0.2
16,RCMC,0.976
17,RTIF,0.233
18,PNCF,≤ 0.2
19,CTIM,≤ 0.2
20,ACVI,≤ 0.2
21,NMAR,≤ 0.2
22,SCIA,≤ 0.2
23,DVQV,≤ 0.2
24,HQAG,≤ 0.2
25,MNWM,≤ 0.2
26,DAAL,≤ 0.2

row,Variant,one-hybrid fitness for binding parS DNA
1,KVFR,≤ 0.2
2,ENKY,≤ 0.2
3,QMEE,≤ 0.2
4,QSPW,≤ 0.2
5,DYMM,≤ 0.2
6,KADF,≤ 0.2
7,WDEC,≤ 0.2
8,LPIT,≤ 0.2
9,CIQI,≤ 0.2
10,PMPN,≤ 0.2
11,SFKV,≤ 0.2
12,VVTS,≤ 0.2
13,NVCT,≤ 0.2
14,QQET,≤ 0.2
15,WKHS,≤ 0.2
16,HPTC,≤ 0.2
17,KRVV,≤ 0.2
18,LYRW,≤ 0.2
19,GCTY,≤ 0.2
20,WRAG,≤ 0.2
21,PQGS,≤ 0.2
22,QWSM,≤ 0.2
23,QKWY,≤ 0.2
24,TNTT,≤ 0.2
25,GLVL,≤ 0.2
26,DAMG,≤ 0.2

row,Variant,one-hybrid fitness for binding parS DNA
1,EYKG,≤ 0.2
2,VLYY,≤ 0.2
3,NCAE,≤ 0.2
4,DPVL,≤ 0.2
5,QFRE,≤ 0.2
6,ETYT,≤ 0.2
7,LPTC,≤ 0.2
8,LTGF,≤ 0.2
9,QKMF,≤ 0.2
10,QGRV,≤ 0.2
11,PGSI,≤ 0.2
12,PITS,≤ 0.2
13,WAAA,≤ 0.2
14,VTWH,≤ 0.2
15,CPDR,≤ 0.2
16,YASV,≤ 0.2
17,LQTM,≤ 0.2
18,QDAD,≤ 0.2
19,SHAY,≤ 0.2
20,QIGA,≤ 0.2
21,INYS,≤ 0.2
22,CSSW,≤ 0.2
23,PKTI,≤ 0.2
24,LKFR,≤ 0.2
25,NPDL,≤ 0.2
26,REGE,≤ 0.2

row,Variant,one-hybrid fitness for binding parS DNA
1,ASEL,≤ 0.2
2,MTAK,≤ 0.2
3,DMRS,≤ 0.2
4,LYVH,≤ 0.2
5,SPVG,≤ 0.2
6,GVAH,≤ 0.2
7,EEGS,≤ 0.2
8,TDTS,≤ 0.2
9,RTLK,≤ 0.2
10,RTRD,≤ 0.2
11,LCWC,≤ 0.2
12,QHML,≤ 0.2
13,IMLN,≤ 0.2
14,KWCT,≤ 0.2
15,NFRA,≤ 0.2
16,QVTA,≤ 0.2
17,QANH,≤ 0.2
18,LKCT,≤ 0.2
19,MSSA,≤ 0.2
20,QPSA,≤ 0.2
21,DQRG,≤ 0.2
22,VSEI,≤ 0.2
23,HNFT,≤ 0.2
